# Measurements taken from PubChem BioAssay AID488969 (Vanderbilt High Throughput Screening Facility, 2010).
# Over roughly 110,000 compounds, “z-score” has its median near -0.1; the highest 2% begin near 2. Some of the results follow. The source made the active and inactive calls.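 Rule for the calls: active = z-score in the third read window above 3 or below -3; inactive = the rest.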
# Molecular target: Metabotropic glutamate receptor 8 (Rattus norvegicus) (UniProt P70579)
# Experiment: rat mGluR8 modulators via GIRK flux, primary screen, cell-based, thallium flux, HTS (AID 488969)
# Details: HEK293 rat mGluR8, GIRK (G protein-gated inwardly rectifying potassium channel) thallium flux, FluoZin2; at 10 µM; stronger effect = higher value; submaximal glutamate (EC20) added with thallium
# UniProt P70579, sequence (P70579 whole entry, looked up): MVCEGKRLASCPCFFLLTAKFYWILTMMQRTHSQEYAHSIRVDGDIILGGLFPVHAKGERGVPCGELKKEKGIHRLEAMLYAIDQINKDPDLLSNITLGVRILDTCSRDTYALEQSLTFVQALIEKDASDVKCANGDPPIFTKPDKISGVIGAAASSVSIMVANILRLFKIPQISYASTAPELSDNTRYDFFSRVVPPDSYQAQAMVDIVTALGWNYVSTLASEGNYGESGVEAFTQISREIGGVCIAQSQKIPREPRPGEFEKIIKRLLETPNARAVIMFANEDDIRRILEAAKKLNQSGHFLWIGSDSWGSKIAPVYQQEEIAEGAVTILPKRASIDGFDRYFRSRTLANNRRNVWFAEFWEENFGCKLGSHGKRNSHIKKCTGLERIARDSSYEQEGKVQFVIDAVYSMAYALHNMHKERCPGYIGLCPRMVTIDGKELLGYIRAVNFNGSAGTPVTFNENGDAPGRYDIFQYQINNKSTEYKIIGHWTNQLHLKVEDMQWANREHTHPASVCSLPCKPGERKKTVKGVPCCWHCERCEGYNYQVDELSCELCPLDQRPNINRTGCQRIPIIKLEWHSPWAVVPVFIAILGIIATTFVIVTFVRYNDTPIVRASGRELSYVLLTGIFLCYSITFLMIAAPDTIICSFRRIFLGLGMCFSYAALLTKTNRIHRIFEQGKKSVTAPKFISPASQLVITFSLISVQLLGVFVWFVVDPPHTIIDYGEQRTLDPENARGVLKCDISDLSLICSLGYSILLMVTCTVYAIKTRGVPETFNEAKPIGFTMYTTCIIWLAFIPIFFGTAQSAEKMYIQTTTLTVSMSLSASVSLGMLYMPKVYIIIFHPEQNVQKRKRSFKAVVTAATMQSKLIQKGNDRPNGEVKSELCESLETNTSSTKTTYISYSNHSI
row,Compound,z-score
1,CCCCC(=O)NC(NC(=S)N1CCCCCC1)C(Cl)(Cl)Cl (centres undefined),-0.591
2,CCc1ccc(OCC(=O)NC(NC(=S)Nc2ccccc2)C(Cl)(Cl)Cl)cc1 (centres undefined),-0.00519
3,Cc1ccc(S(=O)(=O)N2CCN(C(=O)COC(=O)COc3ccccc3)CC2)cc1,-0.0706
4,COc1ccc(N/C=C/C(=O)c2ccc(C)cc2)c([N+](=O)[O-])c1,-0.0506
5,CCOC(=O)C1CCCN(C(=O)Cc2ccc(OC)c(OC)c2)C1 (centres undefined),0.106
6,O=C(c1ccccc1Oc1ccc(C(F)(F)F)cc1[N+](=O)[O-])N1CCOCC1,-0.308
7,Cc1c(-n2c(CN3C(=O)c4ccccc4C3=O)nc3ccccc3c2=O)c(=O)n(-c2ccccc2)n1C,0.0572
8,O=C(CSc1nnc(C2CC2)n1Cc1ccccc1)NCc1ccccc1,-0.164
9,COC(=O)c1cc(OC)c(OC)cc1NC(=S)N1CCN(C/C=C/c2ccccc2)CC1,-0.713
10,CN(Cc1ccccc1)C(=O)CCCn1c(=O)[nH]c2cc(Cl)ccc2c1=O,0.953
11,COc1ccc2c(c1[N+](=O)[O-])CCC/C2=N/OC(=O)c1ccccc1SC,-0.13
12,COc1cc(C(C)=O)ccc1Oc1ncnc2c1cnn2-c1ccc(C)c(C)c1,0.00306
13,CNC(=O)NC(=O)CSc1nnc(C(F)(F)F)n1C,-0.759
14,Fc1ccccc1CSc1nc2ncccc2[nH]1,-0.00473
15,Nc1ccc2nc(SCc3ccc([N+](=O)[O-])cc3)sc2c1,-0.102
16,COc1ccc(CCNC(=O)c2cc(-c3cc(Cl)cc(Cl)c3)oc2C)cc1,0.0176
17,O=C(Cn1[nH]c(=O)c2ccccc2c1=O)NC1CCN(Cc2ccccc2)CC1,-0.0419
18,COc1ccccc1NC(=O)CSc1nnc(-c2ccncc2)o1,0.38
19,O=C(OCc1ccc(Cl)c(Cl)c1)c1ccccn1,0.0457
20,COc1ccc(C(=O)c2sc(Nc3ccccc3)c(C(=O)Nc3ccc(OC)c(OC)c3)c2N)cc1,-0.23
21,COC(=O)C1=C(N)Oc2cc(C)n(CCc3ccccc3)c(=O)c2C1c1cccnc1 (centres undefined),-0.611
22,Cc1cc(Cl)c(S(=O)(=O)N2CCCCCC2)cc1OCC(=O)NC1CCCCC1,-0.622
23,CCOc1cc(CNc2cccc3ccccc23)cc(Br)c1OCC(=O)NC(C)(C)C,-0.15
24,CC12CCC(C(=O)N(NC(=O)c3ccc(O)cc3)C1=O)C2(C)C (centres undefined),0.245
25,Cc1ccc(-n2ncc3c(=O)n(CC(=O)N4CCCCCC4)cnc32)cc1,-0.166
26,N#Cc1ccc(NC(=S)Nc2ccccc2)cc1,-0.118
27,C[N+]1(CC(=O)OCCCc2ccccc2)CCCC1,0.0174

row,Compound,z-score
1,Cc1cc(OCC(O)CN(CCO)CCO)ccc1Cl (centres undefined),0.338
2,O=C(CCCn1c(SCC(=O)NC2CCCCC2)nc2ccccc2c1=O)NCC1CCCO1 (centres undefined),-0.0674
3,CC(C)COP(=O)(OCC(C)C)C(Nc1ccccc1)c1ccc2c(c1)OCO2 (centres undefined),-0.389
4,NC(=O)C1CCN(CC(=O)Nc2ccccc2Sc2ccccc2)CC1,-0.504
5,COc1ccc(-n2c3c(c(=O)[nH]c2=O)C(C(F)(F)F)(C(F)(F)F)N=C(CC(C)C)N3)cc1,-0.198
6,COc1ccc(S(=O)(=O)N2CCOCC2)cc1Cl,-0.331
7,COCCN1Cc2cccc(C(=O)N3CCN(c4ccccc4)CC3)c2C1=O,0.197
8,CCOC(=O)c1c(NC(=O)CSc2ncnc3ccccc23)sc(C(C)=O)c1C,-0.222
9,CCN1CCCC1CNC(=O)C1CCN(Cc2nc(-c3cccc(Br)c3)oc2C)CC1 (centres undefined),active: 4.3
10,CCSc1nnc2c(n1)OC1(CCCC1)Nc1ccccc1-2,-0.448
11,CC(C)N1C(=O)/C(=C\c2nc3ccccc3c(=O)n2-c2ccccc2)c2ccccc21,0.0165
12,CCOC(=O)c1cc(C)sc1NC(=O)C1CCC1,-2.58
13,COc1ccc(N2CCN(C(=O)CC34CC5CC(CC(C5)C3)C4)CC2)c([N+](=O)[O-])c1,0.0546
14,Nc1ccc2oc3ncccc3c(=O)c2c1,-0.0378
15,CCC(=O)Nc1cccc(NC(=O)CSc2nnc(-c3ccc(NS(C)(=O)=O)cc3)n2CC)c1,-0.166
16,Cc1ccc(SC(C)C(=O)NCC(C)C)cc1 (centres undefined),-0.00745
17,O=C(CSc1nccn1-c1cccc(Cl)c1)Nc1ccc2c(c1)OCCO2,-0.509
18,Cn1c(CNC(=O)c2ccccc2F)nnc1SCc1ccc(F)cc1,0.297
19,CCn1c(CC(=O)Nc2cccc(OC)c2)nnc1SCC(=O)Nc1nccs1,-0.0961
20,COc1cc(C(C)=O)ccc1OC(=O)C(C)N1C(=O)c2ccccc2C1=O (centres undefined),-0.555
21,COc1ccc(-c2csc(N(CCc3ccc(OC)c(OC)c3)C(=O)COc3ccccc3)n2)cc1,-0.0301
22,O=C(c1cc([N+](=O)[O-])ccc1Cl)N1CCN(c2ccc([N+](=O)[O-])cc2)CC1,-0.595
23,O=C1Nc2ccc(S(=O)(=O)NCc3ccccn3)c3cccc1c23,-0.472
24,Nn1c(SCC(=O)N2CCN(S(=O)(=O)c3ccccc3)CC2)nnc1-c1cccs1,-0.168
25,Cc1ccc(NC(=S)N2CCC(c3nc4ccccc4s3)CC2)cc1,0.0218
26,S=C(Nc1ccccc1)Nc1ccc(OCc2ccc(Cl)cc2Cl)cc1,-0.223
27,CCCc1cc(C(=O)Nc2sc3c(c2C(=O)OCC)CCCC3)no1,1.3
